# Laboratory results: the supplement of paper PMC8728848
# The other results are listed elsewhere or left out.
# B1: Arath Fbox LD (Arabidopsis thaliana) (protein)
# chain: EFSVWLEKASGKRCLMLSAMNLSIIWGDNPQYWQWIPIPESRFEKVAKLRDVCWFEIRGRTNTRVLSPRTRYSAYIVFKGVDKCYGFQNVAIEAAVGVVGQEPSRRLICFSEAIRRGRRNVVKPKQREDGWMEIELGEFFNDGGIMDNDEIEMSALETKQLNRKCGLIIQGIEIRPAKILAAASFLEQKLISEEDLNSAVDHHHHHH
# Tests used:
# Test in all cases: glycan array binding signal (z-score within array); higher = stronger binding
# Details in all cases: glycan notation: IUPAC condensed, linker removed
# [1] = target: GalNAc(b1-4)GlcNAc(b1-2)Man
# Method in brief: (§1)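 Glycan array binding is given as a within-array Z-score, which can be read as non-binding when negative. The arrays, 3228 of them, came from the Consortium for Functional Glycomics database and were retained only where the protein sequence was available. Z-scores were averaged across arrays of the same protein sequence at different concentrations or buffers and across linkers.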
# [2] = target: GalNAc(b1-4)GlcNAc(b1-2)Man(a1-3)[GalNAc(b1-4)GlcNAc(b1-2)Man(a1-6)]Man(b1-4)GlcNAc(b1-4)GlcNAc
# Method in brief: as §1
# [3] = target: GalNAc(b1-4)GlcNAc(b1-3)GalNAc(b1-4)GlcNAc
# Method in brief: as §1
# GalNAc(b1-4)GlcNAc6S = target: GalNAc(b1-4)GlcNAc6S
# Method in brief: as §1
# GalNAc(b1-6)GalNAc = target: GalNAc(b1-6)GalNAc
# Method in brief: as §1
# GalNAc3S(b1-4)GlcNAc = target: GalNAc3S(b1-4)GlcNAc
# Method in brief: as §1
# GalNAc3S(b1-4)GlcNAc3S = target: GalNAc3S(b1-4)GlcNAc3S
# Method in brief: as §1
# [4] = target: GalNAc3S(b1-4)[Fuc(a1-3)]GlcNAc
# Method in brief: as §1
# GalNAc4S6S(b1-4)GlcNAc = target: GalNAc4S6S(b1-4)GlcNAc
# Method in brief: as §1
# GalNAc6S(b1-4)GlcNAc = target: GalNAc6S(b1-4)GlcNAc
# Method in brief: as §1
# Glc(a1-4)Glc = target: Glc(a1-4)Glc
# Method in brief: as §1
# [5] = target: Glc(a1-4)Glc(a1-4)Glc(a1-4)Glc
# Method in brief: as §1
# Glc(a1-6)Glc(a1-6)Glc = target: Glc(a1-6)Glc(a1-6)Glc
# Method in brief: as §1
# [6] = target: Glc(a1-6)Glc(a1-6)Glc(a1-6)Glc
# Method in brief: as §1
# Glc(b1-4)Glc = target: Glc(b1-4)Glc
# Method in brief: as §1
# Glc(b1-6)Glc = target: Glc(b1-6)Glc
# Method in brief: as §1
# GlcA(b1-3)Gal = target: GlcA(b1-3)Gal
# Method in brief: as §1
# GlcA(b1-3)GlcNAc = target: GlcA(b1-3)GlcNAc
# Method in brief: as §1
# GlcA(b1-6)Gal = target: GlcA(b1-6)Gal
# Method in brief: as §1
# [7] = target: GlcA3S(b1-3)Gal(b1-4)GlcNAc(b1-2)Man
# Method in brief: as §1
# [8] = target: GlcA3S(b1-3)Gal(b1-4)GlcNAc(b1-3)Gal(b1-4)Glc
# Method in brief: as §1
# [9] = target: GlcNAc(a1-3)Gal(b1-4)GlcNAc
# Method in brief: as §1
# [10] = target: GlcNAc(a1-4)Gal(b1-3)GlcNAc
# Method in brief: as §1
# [11] = target: GlcNAc(a1-4)Gal(b1-4)GalNAc
# Method in brief: as §1
# [12] = target: GlcNAc(a1-4)Gal(b1-4)GlcNAc
# Method in brief: as §1
# [13] = target: GlcNAc(a1-4)Gal(b1-4)GlcNAc(b1-3)Gal(b1-4)Glc
# Method in brief: as §1
# [14] = target: GlcNAc(a1-4)Gal(b1-4)GlcNAc(b1-3)Gal(b1-4)GlcNAc
# Method in brief: as §1
# [15] = target: GlcNAc(a1-4)Gal(b1-4)GlcNAc(b1-3)Gal(b1-4)GlcNAc(b1-3)Gal(b1-4)GlcNAc
# Method in brief: as §1
# [16] = target: GlcNAc(a1-4)Gal(b1-4)GlcNAc(b1-3)Gal(b1-4)[Fuc(a1-3)]GlcNAc(b1-3)Gal(b1-4)[Fuc(a1-3)]GlcNAc
# Method in brief: as §1
# [17] = target: GlcNAc(a1-6)Gal(b1-4)GlcNAc
# Method in brief: as §1
# [18] = target: GlcNAc(b1-2)Gal(b1-3)GalNAc
# Method in brief: as §1
# [19] = target: GlcNAc(b1-2)Man(a1-3)[GlcNAc(b1-2)Man(a1-6)]Man(b1-4)GlcNAc(b1-4)GlcNAc
# Method in brief: as §1
# [20] = target: GlcNAc(b1-2)Man(a1-3)[GlcNAc(b1-2)Man(a1-6)]Man(b1-4)GlcNAc(b1-4)[Fuc(a1-6)]GlcNAc
# Method in brief: as §1
# [21] = target: GlcNAc(b1-2)Man(a1-3)[GlcNAc(b1-4)][GlcNAc(b1-2)Man(a1-6)]Man(b1-4)GlcNAc(b1-4)GlcNAc
# Method in brief: as §1
# [22] = target: GlcNAc(b1-2)Man(a1-3)[GlcNAc(b1-4)][GlcNAc(b1-2)Man(a1-6)]Man(b1-4)GlcNAc(b1-4)[Fuc(a1-6)]GlcNAc
# Method in brief: as §1
# [23] = target: GlcNAc(b1-2)[GlcNAc(b1-4)]Man(a1-3)[GlcNAc(b1-2)Man(a1-6)]Man(b1-4)GlcNAc(b1-4)GlcNAc
# Method in brief: as §1
# [24] = target: GlcNAc(b1-2)[GlcNAc(b1-4)]Man(a1-3)[GlcNAc(b1-4)][GlcNAc(b1-2)Man(a1-6)]Man(b1-4)GlcNAc(b1-4)GlcNAc
# Method in brief: as §1
# [25] = target: GlcNAc(b1-2)[GlcNAc(b1-4)]Man(a1-3)[GlcNAc(b1-4)][GlcNAc(b1-2)[GlcNAc(b1-6)]Man(a1-6)]Man(b1-4)GlcNAc(b1-4)GlcNAc
# Method in brief: as §1
# [26] = target: GlcNAc(b1-2)[GlcNAc(b1-4)]Man(a1-3)[GlcNAc(b1-4)][GlcNAc(b1-2)[GlcNAc(b1-6)]Man(a1-6)]Man(b1-4)GlcNAc(b1-4)[Fuc(a1-6)]GlcNAc
# Method in brief: as §1
# [27] = target: GlcNAc(b1-2)[GlcNAc(b1-6)]Man(a1-6)[GlcNAc(b1-2)Man(a1-3)]Man(b1-4)GlcNAc(b1-4)GlcNAc
# Method in brief: as §1
# [28] = target: GlcNAc(b1-2)[GlcNAc(b1-6)]Man(a1-6)[GlcNAc(b1-2)Man(a1-3)]Man(b1-4)GlcNAc(b1-4)[Fuc(a1-6)]GlcNAc
# Method in brief: as §1
# [29] = target: GlcNAc(b1-2)[GlcNAc(b1-6)]Man(a1-6)[GlcNAc(b1-4)][GlcNAc(b1-2)Man(a1-3)]Man(b1-4)GlcNAc(b1-4)GlcNAc
# Method in brief: as §1
# GlcNAc(b1-3)Fuc = target: GlcNAc(b1-3)Fuc
# Method in brief: as §1
# GlcNAc(b1-3)Gal = target: GlcNAc(b1-3)Gal
# Method in brief: as §1
# [30] = target: GlcNAc(b1-3)Gal(b1-3)GalNAc
# Method in brief: as §1
binder,measurement,setting,value
B1,glycan array binding signal (z-score),[1],-0.446
same,glycan array binding signal (z-score),[2],-0.331
same,glycan array binding signal (z-score),[3],-0.612
same,glycan array binding signal (z-score),GalNAc(b1-4)GlcNAc6S,-0.574
same,glycan array binding signal (z-score),GalNAc(b1-6)GalNAc,-0.007
same,glycan array binding signal (z-score),GalNAc3S(b1-4)GlcNAc,-0.617
same,glycan array binding signal (z-score),GalNAc3S(b1-4)GlcNAc3S,-0.519
same,glycan array binding signal (z-score),[4],1.17
same,glycan array binding signal (z-score),GalNAc4S6S(b1-4)GlcNAc,-0.367
same,glycan array binding signal (z-score),GalNAc6S(b1-4)GlcNAc,-0.313
same,glycan array binding signal (z-score),Glc(a1-4)Glc,-0.476
same,glycan array binding signal (z-score),[5],-0.529
same,glycan array binding signal (z-score),Glc(a1-6)Glc(a1-6)Glc,-0.548
same,glycan array binding signal (z-score),[6],-0.436
same,glycan array binding signal (z-score),Glc(b1-4)Glc,-0.179
same,glycan array binding signal (z-score),Glc(b1-6)Glc,-0.208
same,glycan array binding signal (z-score),GlcA(b1-3)Gal,-0.189
same,glycan array binding signal (z-score),GlcA(b1-3)GlcNAc,-0.21
same,glycan array binding signal (z-score),GlcA(b1-6)Gal,1.15
same,glycan array binding signal (z-score),[7],0.101
same,glycan array binding signal (z-score),[8],-0.029
same,glycan array binding signal (z-score),[9],-0.356
same,glycan array binding signal (z-score),[10],-0.064
same,glycan array binding signal (z-score),[11],0.26
same,glycan array binding signal (z-score),[12],-0.391
same,glycan array binding signal (z-score),[13],-0.551
same,glycan array binding signal (z-score),[14],-0.37
same,glycan array binding signal (z-score),[15],-0.602
same,glycan array binding signal (z-score),[16],0.64
same,glycan array binding signal (z-score),[17],-0.354
same,glycan array binding signal (z-score),[18],-0.441
same,glycan array binding signal (z-score),[19],-0.535
same,glycan array binding signal (z-score),[20],-0.253
same,glycan array binding signal (z-score),[21],-0.61
same,glycan array binding signal (z-score),[22],-0.507
same,glycan array binding signal (z-score),[23],-0.593
same,glycan array binding signal (z-score),[24],-0.586
same,glycan array binding signal (z-score),[25],-0.532
same,glycan array binding signal (z-score),[26],-0.536
same,glycan array binding signal (z-score),[27],-0.517
same,glycan array binding signal (z-score),[28],-0.521
same,glycan array binding signal (z-score),[29],-0.433
same,glycan array binding signal (z-score),GlcNAc(b1-3)Fuc,-0.558
same,glycan array binding signal (z-score),GlcNAc(b1-3)Gal,-0.425
same,glycan array binding signal (z-score),[30],-0.519
